Results: PMC4336329 (PLoS ONE, 2015)
Among all 310,000 compounds or so, about 2,200 (0.71%) showed an effect of 50% or more. Effects have a minus sign here. The list shows a part of the results.

Target: human ether-à-go-go-related gene (hERG) potassium channel (human, UniProt Q12809)
Assay: primary screen, population patch clamp on CHO cells stably expressing hERG

Chain of human ether-à-go-go-related gene (hERG) potassium channel (Q12809 whole entry, looked up): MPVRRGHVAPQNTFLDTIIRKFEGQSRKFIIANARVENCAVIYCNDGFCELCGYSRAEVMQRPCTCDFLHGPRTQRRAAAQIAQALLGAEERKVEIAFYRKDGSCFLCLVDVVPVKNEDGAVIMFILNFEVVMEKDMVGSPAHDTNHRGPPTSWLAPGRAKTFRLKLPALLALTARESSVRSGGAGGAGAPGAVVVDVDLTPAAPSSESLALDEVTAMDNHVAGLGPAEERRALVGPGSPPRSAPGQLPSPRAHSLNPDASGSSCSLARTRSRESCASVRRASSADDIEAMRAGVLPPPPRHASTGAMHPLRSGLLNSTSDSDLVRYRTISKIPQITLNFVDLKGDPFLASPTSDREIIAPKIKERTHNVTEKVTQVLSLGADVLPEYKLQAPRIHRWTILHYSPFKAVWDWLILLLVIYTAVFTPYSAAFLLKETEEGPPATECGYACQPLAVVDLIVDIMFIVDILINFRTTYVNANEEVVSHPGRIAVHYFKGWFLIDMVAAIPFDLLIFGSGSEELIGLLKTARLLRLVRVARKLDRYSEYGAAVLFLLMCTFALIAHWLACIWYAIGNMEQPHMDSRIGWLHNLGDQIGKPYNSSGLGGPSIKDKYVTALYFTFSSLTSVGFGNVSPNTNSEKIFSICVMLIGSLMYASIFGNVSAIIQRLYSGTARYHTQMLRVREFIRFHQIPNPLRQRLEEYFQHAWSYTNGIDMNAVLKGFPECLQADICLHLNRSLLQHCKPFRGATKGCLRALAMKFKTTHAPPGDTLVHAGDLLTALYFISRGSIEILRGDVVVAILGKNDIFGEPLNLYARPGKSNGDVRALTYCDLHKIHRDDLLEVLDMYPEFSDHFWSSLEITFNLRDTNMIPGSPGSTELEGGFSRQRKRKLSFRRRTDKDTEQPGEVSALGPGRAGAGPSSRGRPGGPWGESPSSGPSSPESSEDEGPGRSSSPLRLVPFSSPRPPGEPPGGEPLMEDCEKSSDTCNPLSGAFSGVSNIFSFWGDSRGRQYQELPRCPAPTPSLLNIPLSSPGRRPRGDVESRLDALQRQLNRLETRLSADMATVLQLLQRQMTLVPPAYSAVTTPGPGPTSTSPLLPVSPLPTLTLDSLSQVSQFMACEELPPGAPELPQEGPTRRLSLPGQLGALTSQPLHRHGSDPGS

Structure (SMILES) | hERG current change (%, negative = inhibition) at 1uM [%]
O=C(NCc1ccco1)c1cc(-c2ccncc2)nc2ccccc12 | -2.39
CC(=O)c1sc2nc(SCC(=O)N3CCCCC3)[nH]c(=O)c2c1C | 7.05
O=C(CN1C(=O)COc2ccc(S(=O)(=O)N3CCCC3)cc21)NC1CCCCCCC1 | 15.6
COc1ccc(NC(=S)Nc2ccc(OCc3ccccc3)cc2)c(OC)c1 | 12.6
CC(=O)Nc1ccc(C(=O)OCC(=O)Nc2c(F)cccc2F)cc1 | 13.5
CCCN(CCC)C(=S)NC(=O)c1ccc(-c2ccccc2)cc1 | 2.75
CN(CC(=O)Nc1ccc(F)c(F)c1F)c1cnccn1 | -7.21
COC(=O)c1c(NC(=O)CC2SCC(C(=O)OC)NC2=O)sc2c1CCCC2 (centres unmarked) | 7.92
COCCOc1ccc(C(F)(F)F)cc1NC(=O)c1ccccc1F | 10.1
O=C(O)c1cccc(NC(=O)C2CCCO2)c1 (centres unmarked) | 19.7
O=C(Nc1cc2c3c(c1)CC(=O)N3CCC2)c1ccccc1Br | 10.8
Cc1ccc(NC(=O)/C=C\C(=O)NCC(=O)O)cc1C | 12.1
CC1(C)CC(=O)C(Sc2ccccc2[N+](=O)[O-])=C(O)C1 | 17.6
Cc1cccc(N2CCN(C(=O)c3ccccc3SCC(=O)N3CCCC3)CC2)c1C | 2.89
CCC1(C(=O)c2ccccc2)C2c3ccccc3OC(=O)C21C(C)=O (centres unmarked) | 9.22
O=C(CN(Cc1ccccc1)C(=O)c1csnn1)NCc1ccc2c(c1)OCO2 | 6.31
CC(=O)Nc1ccc2c(c1)nc(CCN1CCOCC1)n2C | 8.26
CC(C)c1nnc(SCc2ccc(CSc3nnc(C(C)C)n3N)cc2)n1N | 0.868
COC(=O)[C@@H](N)Cc1ccc(O)c(O)c1.Cl | 18.7
CCCCn1nnnc1SCC(=O)c1ccc(C)c(C)c1 | 10.5
CC1=C(C(=O)Nc2cccnc2)C(c2ccncc2)n2nnnc2N1 (centres unmarked) | 7.41
C=C1CCN(C(Cc2ccccc2)C(=O)OC)S(=O)(=O)c2ccc(F)cc21 (centres unmarked) | 11.3
COC(=O)c1ccccc1Oc1cnc2ccccc2n1 | 14.6

Structure (SMILES) | hERG current change (%, negative = inhibition) at 1uM [%]
CCOc1cc(C(=O)Nc2ccc(S(=O)(=O)Nc3cc(C)on3)cc2)cc(OCC)c1OCC | 1.51
CCCCOc1ccc(CN2CCN(CC)CC2)cc1 | 3.98
CC1CC(C)CN(C(=O)CN2C(=O)NC(c3ccccc3)(c3ccccc3)C2=O)C1 (centres unmarked) | 5.62
Cc1ccc(S(=O)(=O)N2[C@@H](c3ccccc3F)C(C(=O)O)=CC[C@H]2c2ccc(C(C)C)cc2)cc1 | 13.8
O=C(O)c1ccc2ncc(NC(=O)c3ccc(F)cc3)c(=O)n2c1 | 13
CCC(=O)OCC(=O)c1cc(C)n(-c2ccc(Br)cc2)c1C | 7.37
CCCCn1c(=O)c(C(=O)Nc2ccsc2C(=O)OC)c(O)c2ccccc21 | -3.65
CCSc1nc(=O)n(-c2ccccc2)c(C)c1C(C)=O | -1.68
CCn1c(SCC(=O)OC)nnc1-c1ccc(C)cc1 | 3.45
COc1ccc(CN2CN(C3CCCC3)CSC2=S)cc1 | 4.84
CC(C)Cc1ccc(C(C)NC(=O)Cc2ccc(S(=O)(=O)N3CCOCC3)s2)cc1 (centres unmarked) | 8.69
Clc1ccc(NCc2nnc3n2CCCCC3)cc1 | 6.07
Cc1cc(C)c2c(N)c(C(=O)C(C)(C)C)sc2n1 | 14.7
COc1cccc(/C=N/NC(=O)C(=O)N2CCCCCC2)c1O | 12.9
CCOC(=O)c1c(NC(=O)CN2CCN(C(=O)c3ccco3)CC2)sc2c1CCCC2 | 2.03
COc1ccccc1C(O)c1nccn1C (centres unmarked) | 13.3
CCOc1ccc(NC(=O)c2ccc(NC(=O)COC(=O)Cc3ccccc3)cc2)cc1 | 15.8
Cc1ccc(S(=O)(=O)N(C)C)cc1NC(=O)CN1C(=O)NC2(CCCCCCC2)C1=O | 15.6
COc1ccc(CC(=O)Nc2ccc(S(=O)(=O)Nc3nc(C)cc(C)n3)cc2)cc1 | -3.72
Cn1c(=O)[nH]c(=O)c2c1nc(N1CCN(CCO)CC1)n2Cc1ccccc1Cl | 4.6
O=C(CSc1nc2ccsc2c(=O)n1CC1CCC(C(=O)O)CC1)c1ccc(Cl)cc1 (centres unmarked) | 20.9
COC(=O)c1sc(NC(=O)COc2cccnc2[N+](=O)[O-])c(C(=O)OC)c1C | 10.4
Cn1c(=O)n(Cc2ccccc2Cl)c2ccccc21 | 11.1

Structure (SMILES) | hERG current change (%, negative = inhibition) at 1uM [%]
CCOc1ccc(OCCCC(=O)NNC(=O)c2ccncc2)cc1 | -12.5
CO/N=C(\c1ccccc1)c1cccnc1 | 11.5
C=CCCC(=O)N1CCC(n2nccc2NC(=O)CCCc2ccccc2)CC1 | 2.05
CCCOc1ccccc1-c1nc(SCCC(=O)O)n[nH]1 | -5.67
O=C(NCCc1ccccc1)C1c2ccccc2C(=O)N1C1CC1 (centres unmarked) | 5.98
Cc1ccc(S(=O)(=O)N2CCN(S(=O)(=O)c3cccs3)CC2)cc1 | -11.2
CCn1c(SCC(=O)Nc2nc(C)c(C)s2)nnc1-c1cccnc1 | -6.88
OC1(c2ccc(Cl)cc2)CCN(Cc2cn[nH]c2-c2ccc(F)cc2)CC1 | -27.2
C[C@@H]1CCC(=O)N(CC[C@H](N=[N+]=[N-])c2ccccc2)CC1 | 5.07
COc1cccc2cc(C(=O)Nc3cccnc3N3CCOCC3)c(=O)oc12 | 8.86
O=C(Cc1c[nH]c2ccccc12)OCCOC(=O)Cc1c[nH]c2ccccc12 | 15.5
CC(=O)C(Sc1ccc2nnc(-c3ccncc3)n2n1)C(C)=O | 8.37
CCn1c(=S)sc2c(=O)n(CC(=O)NC(C)CCc3ccccc3)c(C)nc21 (centres unmarked) | 8.43
O=C(Nc1ccc(F)cc1F)NC1CCN(S(=O)(=O)c2ccc(F)cc2)CC1 | 5.5
Cc1nn(CC(=O)NCC(C)c2ccccc2)c(=O)c2cc(-c3ccccc3)nn12 (centres unmarked) | 30.2
c1ccc(CSc2ncnc3c2cnn3Cc2ccccc2)cc1 | 17.2
Cc1cc(=O)n2nc(N3CCC(C(=O)NC(C)c4ccccc4)CC3)sc2n1 (centres unmarked) | 10
C=CCC(O)(CCN1CCCCC1)c1ccccc1.Cl (centres unmarked) | -0.382
CCOc1c2ccc(C(=O)NCc3ccco3)cc2nn1CC | 12.6
Cc1ccc(-c2nnc(CSc3nnc(COc4ccccc4)n3-c3ccc(C)cc3)o2)cc1 | 12.2
COc1ccc2c(c1OC)C(=O)OC2Nc1ncccc1C (centres unmarked) | -1.88
Cc1ccc(NC(=O)C(CC(C)C)NC(=O)C2CCC(C)CC2)nc1 (centres unmarked) | 4.68
CCN(CC(=O)N1CCN(Cc2ccccc2)CC1)S(=O)(=O)c1ccc(F)cc1 | -9.4

Structure (SMILES) | hERG current change (%, negative = inhibition) at 1uM [%]
CCN(CC)CCN(C(=O)c1ccccc1OC)c1nc2ccc(F)cc2s1.Cl | -4.16
O=C(c1ccc(C(F)(F)F)cc1)C1CCCN(C(=O)Cn2cncn2)C1 (centres unmarked) | 11.9
Cc1[nH]ncc1-c1ccccc1Cl | 8.11
COc1cccc(OC)c1C(=O)OCC(=O)/C(C#N)=C(\C)N | 2.37
Cc1ccc(/C=N/N2CCN(Cc3ccc(Cl)cc3)CC2)o1 | -1.21
O=C(Cc1ccccc1[N+](=O)[O-])NNC(=O)c1ccncc1 | 1.42
Cc1c(OC(C)C(=O)NCc2ccncc2)ccc2c3c(c(=O)oc12)CCCC3 (centres unmarked) | 1.2
COc1ccc(S(=O)(=O)NCC(=O)NCc2cc(=O)n(C)c(=O)n2C)cc1 | 15.5
O=C(O)CCC(=O)NCc1ccc2[nH]c3c(c2c1)CCCC3 | 5.85
NCCNc1ccc([N+](=O)[O-])c2cccnc12 | 0.884
COc1ccc(C2CC(=O)c3c(C)nc(N4CCN(c5ccccc5)CC4)nc3C2)cc1 (centres unmarked) | 3.16
Cc1cc(C)c(S(=O)(=O)c2ccccc2)c(OC(=O)c2c(F)cccc2Cl)n1 | 14.8
CN1CCN(/N=C/c2nc(-c3ccc(Cl)cc3)n3ccccc23)CC1 | 7.72
CC(=O)Nc1ccc(S(=O)(=O)NCc2nnnn2-c2ccc(Cl)cc2)cc1 | 10.6
COc1cccc(C(=O)N2CCC(O)(c3cccnc3)CC2)c1 | 9.13
CC1(C)CNC(=O)c2sc(NC(=O)c3ccccc3Cl)nc2C1 | 9.87
COCCN(C(=O)CCc1ccccc1OC)c1nnc(-c2cccnc2)s1 | 7.3
O=C(NCc1ccccc1Cl)C1CCCN1C(=O)Nc1ccccc1 (centres unmarked) | 13.7
Cc1cc(C)cc(NC(=O)CC2NCCNC2=O)c1 (centres unmarked) | 18.1
CCc1cccc(NC(=O)Cn2c3[n+](c4ccc(C(F)(F)F)cc42)CCCCC3)c1.[Cl-] | 1.62
